The list shows a part of the results.

In the assay the target is T1, OsWOX13 (Oryza sativa, UniProt Q5QMM3 1-267).
T1 sequence: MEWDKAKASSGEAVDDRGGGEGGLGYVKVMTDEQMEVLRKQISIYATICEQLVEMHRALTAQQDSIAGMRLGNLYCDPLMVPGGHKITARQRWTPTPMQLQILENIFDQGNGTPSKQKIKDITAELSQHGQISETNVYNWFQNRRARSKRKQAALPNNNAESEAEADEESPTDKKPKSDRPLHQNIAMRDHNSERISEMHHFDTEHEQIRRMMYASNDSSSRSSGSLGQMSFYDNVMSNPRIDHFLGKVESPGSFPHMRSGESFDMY
The assay can be described thus: protein-binding microarray (RPBM); PBS, 2% BSA, 51.3 ng/ul salmon testes DNA, 50 uM zinc acetate, 200 nM TF, 25 C, 1 h; high values mean tight binding. The following applies: protein: recombinant; tags: N-terminal polyhistidine and DsRed monomer fusion (pET32a); label: CyDye5-dUTP incorporated in the synthesized complementary strand; 3' TTTTT single-stranded linker to array surface; dsDNA, one strand shown. In short, it runs like this:
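Transcription factors, each fused N-terminally to a polyhistidine tag and DsRed, were expressed in E. coli BL21-CodonPlus and purified on Ni–NTA. A custom Agilent array was made double-stranded by primer extension with Cy5-dUTP and blocked with 2% BSA. It was incubated with 200 nM protein in PBS, 2% BSA, salmon testes DNA and 50 µM zinc acetate at 25 °C for 1 h, then washed. The binding signal is per-feature fluorescence intensity (arbitrary units) read on an Axon 4000B scanner.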
In the case of “CAAACGGCGTATAACTGACAGACTGTGGACGGCGATGATACGGAGTCACCTAGTGCAG”, the binding signal was 3520 fluorescence intensity (a.u.).
The value for “ACGCTATAAAATTGATCATATATTGAAGGACGAAACAAATCGGAGTCACCTAGTGCAG” was 4380 fluorescence intensity (a.u.); that for “CCTTCGATTATTGGCACGGATTGTTTATCCAGGTAAGACTCGGAGTCACCTAGTGCAG” was 13300 fluorescence intensity (a.u.); that for “AGTTTCCTAATCTATTATATGATAGTACTCGGTCGGAGCTCGGAGTCACCTAGTGCAG” was 3210 fluorescence intensity (a.u.).
The value for “AGGGAGAATTGATTATCAGCATGGCAATGGAGGAACATGCCGGAGTCACCTAGTGCAG” was 21600 fluorescence intensity (a.u.).
For “TGAAATTAAATCTGACGAATTAATGCTGAATTGTAGCTGCCGGAGTCACCTAGTGCAG” the value was 26000 fluorescence intensity (a.u.).
Regarding “CGCATTGTACTAATTAATGACAGGAATGAGGATTATTATGCGGAGTCACCTAGTGCAG”, the binding signal was 15400 fluorescence intensity (a.u.).
For “ATTTAAATTTGAATTTGAATTCAAATATTTTCCATATATACGGAGTCACCTAGTGCAG” the value was 7130 fluorescence intensity (a.u.); for “CCACTGGATTGAGGATTGCTTGAATTGACCATCAGATTTGCGGAGTCACCTAGTGCAG”, 13200 fluorescence intensity (a.u.); for “GACAAATATAATTACACCGTATAGTATTAATGTTTTGGTCCGGAGTCACCTAGTGCAG”, 9100 fluorescence intensity (a.u.).
Regarding “CAAATCAATCTTATTTAGATTTCTGATATGTTTACTGAACCGGAGTCACCTAGTGCAG”, the binding signal was 22600 fluorescence intensity (a.u.).
The value for “ATTACTGATAATTTCCTATACAGATGATGTAGGAAACACACGGAGTCACCTAGTGCAG” was 11300 fluorescence intensity (a.u.); that for “TCCTAATTTCACACCGTCTCTTCCTTGTAACCATCTGAAACGGAGTCACCTAGTGCAG” was 6600 fluorescence intensity (a.u.).
The value for “GCAAATTGCCACGTAAGCGCCACGTCAGATCGAGACCGAGCGGAGTCACCTAGTGCAG” was 4790 fluorescence intensity (a.u.).
For “GATAATTGACAAGATTGAACCATATGTGATGTATTATTTCCGGAGTCACCTAGTGCAG”, the binding signal was 53200 fluorescence intensity (a.u.).
Take “CTGATGGATAATAACACAAGCATCCATCAAGCCACTTGCTCGGAGTCACCTAGTGCAG”: the binding signal was 14700 fluorescence intensity (a.u.).
On to “CCATTCCATTAATCCATTGATAGCAACAGGGGTTATATTGCGGAGTCACCTAGTGCAG”, for which the binding signal is 5680 fluorescence intensity (a.u.).
The value for “ATTCCTAATTTTAGTTATTCCTAAAATGTATATCGGTATGCGGAGTCACCTAGTGCAG” was 6790 fluorescence intensity (a.u.); that for “CACAGATTATTCTCATCCATTAACACCACTTCTCATCTGACGGAGTCACCTAGTGCAG” was 3480 fluorescence intensity (a.u.); that for “GCGATGATCGTGATTTCTCTCCCATAACCATATCGTACCACGGAGTCACCTAGTGCAG” was 6010 fluorescence intensity (a.u.).
The value for “CTTAAAACAAATGATTGTTTACGTTCCGTCAATCATGCCCCGGAGTCACCTAGTGCAG” was 21200 fluorescence intensity (a.u.); that for “ATGCAATAAATCATAAAATTATACATCTTAGTGAATCACACGGAGTCACCTAGTGCAG” was 3660 fluorescence intensity (a.u.).
For “TGATCTAATTGAATGTCAACCCCTACTATATATATCTTACCGGAGTCACCTAGTGCAG” the value was 26000 fluorescence intensity (a.u.).
As to “TAAGAAATTAAATCACATTGGATGTTAATCAAAGAGCGAACGGAGTCACCTAGTGCAG”, the binding signal was 6260 fluorescence intensity (a.u.).
“ATCTCCTCAATCACCTTATCGTCAAACTCACCTTTAGTGACGGAGTCACCTAGTGCAG”: the binding signal was 11700 fluorescence intensity (a.u.).
As for “CATGACATATATCATTACTACCATTTGTTTATATAGAATGCGGAGTCACCTAGTGCAG”, the binding signal was 9170 fluorescence intensity (a.u.).
The value for “TTCAATTGATTATGAACTGCTTGTACTCTAATCAATGGTACGGAGTCACCTAGTGCAG” was 55800 fluorescence intensity (a.u.); that for “ACCAGATTACTTTCATTAAATCTACGACCGAATAATATATCGGAGTCACCTAGTGCAG” was 3460 fluorescence intensity (a.u.); that for “TTTAGATTTATTGTACTACGAAGTGTCTCGTCTGTTATAGCGGAGTCACCTAGTGCAG” was 6560 fluorescence intensity (a.u.).
The value for “CATTTGATCTAGCCGATTGGTAGTTAATAAAAGTCAAAATCGGAGTCACCTAGTGCAG” was 4270 fluorescence intensity (a.u.); that for “CTGTAATTAAGCTTTGATGCTCTGACTTGACTGTTTCCGTCGGAGTCACCTAGTGCAG” was 18800 fluorescence intensity (a.u.).
For “ATTAATTGCCACATTTCAATCGAAACAAGCTACTATTCTCCGGAGTCACCTAGTGCAG” the value was 19800 fluorescence intensity (a.u.); for “CCATATTAAACTCATCATTAATTCCCTTTAAACTCTCCATCGGAGTCACCTAGTGCAG”, 3620 fluorescence intensity (a.u.); for “CCATTAAATGCACAATGACACAATTTGAGGATCAGTTTAGCGGAGTCACCTAGTGCAG”, 3340 fluorescence intensity (a.u.).
Take “ACATTAACTGCACTTAATGAGGATGAACTATATAAGTATTCGGAGTCACCTAGTGCAG”: the binding signal is 11100 fluorescence intensity (a.u.).
On to “ACTAGATATGGGCAAACTAATTAGCTTATAATGAAATGATCGGAGTCACCTAGTGCAG”, for which the binding signal is 4040 fluorescence intensity (a.u.).
For “ACGTAATGTGTGTATGACAGGTAAGATTAGGTATTAATAGCGGAGTCACCTAGTGCAG” the value was 13500 fluorescence intensity (a.u.); for “GTGTTTATAATTATCAAAATGAAATAAAAGGATTGCTGCACGGAGTCACCTAGTGCAG”, 11100 fluorescence intensity (a.u.).
The value for “AAAATTGTTTCAATCCAAACAAGCTCATCTTGTTCCGTGACGGAGTCACCTAGTGCAG” was 7880 fluorescence intensity (a.u.); that for “TGTTTAATATATTTTGTCTAATTGGACCGCTATATCAGTACGGAGTCACCTAGTGCAG” was 10800 fluorescence intensity (a.u.).
For “TTTTGATTTCGAAATTAATTAATTAACAAAAGGATTGACCCGGAGTCACCTAGTGCAG” the value was 14000 fluorescence intensity (a.u.); for “AACACTTAATTTATCTTTTCATTTAAGTCTTGAATGTATACGGAGTCACCTAGTGCAG”, 16400 fluorescence intensity (a.u.).

These data come from publication PMC7819943, “Rice protein-binding microarrays: a tool to detect cis-acting elements near promoter regions in rice”.
